Reference: patent publication US10166279B2, “Vaccine” (Bergen Teknologioverføring AS, priority 2013, dated 2019)
Not every detail of the peptide structures is certain; ends, links or a residue may be inferred. Peptide text beside a SMILES is read from it.

The molecules below were run on Protein-A purified rabbit anti-STa antisera (assay: Competitive STh ELISA (antigenicity) of culture filtrates). Conditions: STh ELISA, culture filtrate.
Format: binding

With CC(C)C[C@@H]1NC(=O)[C@H](CCC(=O)O)NC(=O)[C@@H]2CSSC[C@@H]3NC(=O)[C@H](C)NC(=O)[C@@H]4CCCN4C(=O)[C@H]([C@@H](C)O)NC(=O)[C@H](CSSC[C@H](NC(=O)[C@H](Cc4ccc(O)cc4)NC(=O)[C@H](CC(N)=O)NC(=O)[C@H](CO)NC(=O)[C@H](CO)NC(=O)[C@@H](N)CC(N)=O)C(=O)N2)NC(=O)[C@H](CSSC[C@@H](C(=O)N[C@@H](Cc2ccc(O)cc2)C(=O)O)NC(=O)CNC(=O)[C@H]([C@@H](C)O)NC3=O)NC1=O [Mutant N12T] (HELM PEPTIDE1{N.S.S.N.Y.C.C.E.L.C.C.T.P.A.C.T.G.C.Y}$PEPTIDE1,PEPTIDE1,6:R3-11:R3|PEPTIDE1,PEPTIDE1,7:R3-15:R3|PEPTIDE1,PEPTIDE1,10:R3-18:R3$$$V2.0) the “antigenicity relative to native STh” value was “higher than native STh”.
For CC(C)C[C@@H]1NC(=O)[C@H](CCC(=O)O)NC(=O)[C@@H]2CSSC[C@@H]3NC(=O)[C@H](C)NC(=O)[C@@H]4CCCN4C(=O)[C@H](C(C)C)NC(=O)[C@H](CSSC[C@H](NC(=O)[C@H](Cc4ccc(O)cc4)NC(=O)[C@H](CC(N)=O)NC(=O)[C@H](CO)NC(=O)[C@H](CO)NC(=O)[C@@H](N)CC(N)=O)C(=O)N2)NC(=O)[C@H](CSSC[C@@H](C(=O)N[C@@H](Cc2ccc(O)cc2)C(=O)O)NC(=O)CNC(=O)[C@H]([C@@H](C)O)NC3=O)NC1=O [Mutant N12V] (HELM PEPTIDE1{N.S.S.N.Y.C.C.E.L.C.C.V.P.A.C.T.G.C.Y}$PEPTIDE1,PEPTIDE1,6:R3-11:R3|PEPTIDE1,PEPTIDE1,7:R3-15:R3|PEPTIDE1,PEPTIDE1,10:R3-18:R3$$$V2.0), the “antigenicity relative to native STh” value was “higher than native STh”.

Same assay, conditions: relative to native STh; culture filtrate; competitive STh ELISA

In order of rising Antigenicity:
1. CC(C)C[C@@H]1NC(=O)[C@H](CCC(=O)O)NC(=O)[C@@H]2CSSC[C@@H]3NC(=O)[C@H](C)NC(=O)[C@@H]4CCCN4C(=O)[C@H](CC(N)=O)NC(=O)[C@H](CSSC[C@H](NC(=O)[C@H](Cc4ccc(O)cc4)NC(=O)[C@H](CC(N)=O)NC(=O)[C@H](CO)NC(=O)[C@H](CO)NC(=O)[C@@H](N)CC(N)=O)C(=O)N2)NC(=O)[C@H](CSSC[C@@H](C(=O)N[C@@H](Cc2ccc(O)cc2)C(=O)O)NC(=O)CNC(=O)[C@H](CCCNC(=N)N)NC3=O)NC1=O [Mutant T16R] (HELM PEPTIDE1{N.S.S.N.Y.C.C.E.L.C.C.N.P.A.C.R.G.C.Y}$PEPTIDE1,PEPTIDE1,6:R3-11:R3|PEPTIDE1,PEPTIDE1,7:R3-15:R3|PEPTIDE1,PEPTIDE1,10:R3-18:R3$$$V2.0)  0.0233
2. CC(C)C[C@@H]1NC(=O)[C@H](CCC(=O)O)NC(=O)[C@@H]2CSSC[C@@H]3NC(=O)[C@H](C)NC(=O)[C@H](C)NC(=O)[C@H](CC(N)=O)NC(=O)[C@H](CSSC[C@H](NC(=O)[C@H](Cc4ccc(O)cc4)NC(=O)[C@H](CC(N)=O)NC(=O)[C@H](CO)NC(=O)[C@H](CO)NC(=O)[C@@H](N)CC(N)=O)C(=O)N2)NC(=O)[C@H](CSSC[C@@H](C(=O)N[C@@H](Cc2ccc(O)cc2)C(=O)O)NC(=O)CNC(=O)[C@H]([C@@H](C)O)NC3=O)NC1=O [Mutant P13A] (HELM PEPTIDE1{N.S.S.N.Y.C.C.E.L.C.C.N.A.A.C.T.G.C.Y}$PEPTIDE1,PEPTIDE1,6:R3-11:R3|PEPTIDE1,PEPTIDE1,7:R3-15:R3|PEPTIDE1,PEPTIDE1,10:R3-18:R3$$$V2.0)  0.0301
3. CC(C)C[C@@H]1NC(=O)[C@H](CCC(=O)O)NC(=O)[C@@H]2CSSC[C@@H]3NC(=O)[C@H](C)NC(=O)[C@@H]4CCCN4C(=O)[C@H](CCCCN)NC(=O)[C@H](CSSC[C@H](NC(=O)[C@H](Cc4ccc(O)cc4)NC(=O)[C@H](CC(N)=O)NC(=O)[C@H](CO)NC(=O)[C@H](CO)NC(=O)[C@@H](N)CC(N)=O)C(=O)N2)NC(=O)[C@H](CSSC[C@@H](C(=O)N[C@@H](Cc2ccc(O)cc2)C(=O)O)NC(=O)CNC(=O)[C@H]([C@@H](C)O)NC3=O)NC1=O [Mutant N12K] (HELM PEPTIDE1{N.S.S.N.Y.C.C.E.L.C.C.K.P.A.C.T.G.C.Y}$PEPTIDE1,PEPTIDE1,6:R3-11:R3|PEPTIDE1,PEPTIDE1,7:R3-15:R3|PEPTIDE1,PEPTIDE1,10:R3-18:R3$$$V2.0)  0.1645
4. CC(C)C[C@@H]1NC(=O)[C@H](CCC(=O)O)NC(=O)[C@@H]2CSSC[C@@H]3NC(=O)[C@H](C)NC(=O)[C@@H]4CCCN4C(=O)[C@H](CC(N)=O)NC(=O)[C@H](CSSC[C@H](NC(=O)[C@H](Cc4ccc(O)cc4)NC(=O)[C@H](CC(N)=O)NC(=O)[C@H](CO)NC(=O)[C@H](CC(N)=O)NC(=O)[C@@H](N)CC(N)=O)C(=O)N2)NC(=O)[C@H](CSSC[C@@H](C(=O)N[C@@H](Cc2ccc(O)cc2)C(=O)O)NC(=O)CNC(=O)[C@H]([C@@H](C)O)NC3=O)NC1=O [Mutant S02N] (HELM PEPTIDE1{N.N.S.N.Y.C.C.E.L.C.C.N.P.A.C.T.G.C.Y}$PEPTIDE1,PEPTIDE1,6:R3-11:R3|PEPTIDE1,PEPTIDE1,7:R3-15:R3|PEPTIDE1,PEPTIDE1,10:R3-18:R3$$$V2.0)  0.9719
5. CSCC[C@H](N)C(=O)N[C@@H](CO)C(=O)N[C@@H](CO)C(=O)N[C@@H](CC(N)=O)C(=O)N[C@@H](Cc1ccc(O)cc1)C(=O)N[C@H]1CSSC[C@@H]2NC(=O)[C@@H]3CSSC[C@@H](C(=O)N[C@@H](Cc4ccc(O)cc4)C(=O)O)NC(=O)CNC(=O)[C@H]([C@@H](C)O)NC(=O)[C@H](CSSC[C@H](NC1=O)C(=O)N[C@@H](CCC(=O)O)C(=O)N[C@@H](CC(C)C)C(=O)N3)NC(=O)[C@H](C)NC(=O)[C@@H]1CCCN1C(=O)[C@H](CC(N)=O)NC2=O [Mutant N01M] (HELM PEPTIDE1{M.S.S.N.Y.C.C.E.L.C.C.N.P.A.C.T.G.C.Y}$PEPTIDE1,PEPTIDE1,6:R3-11:R3|PEPTIDE1,PEPTIDE1,7:R3-15:R3|PEPTIDE1,PEPTIDE1,10:R3-18:R3$$$V2.0)  1.2547
6. CC(C)C[C@@H]1NC(=O)[C@H](CCC(=O)O)NC(=O)[C@@H]2CSSC[C@@H]3NC(=O)[C@H](C)NC(=O)[C@@H]4CCCN4C(=O)[C@H](CC(N)=O)NC(=O)[C@H](CSSC[C@H](NC(=O)[C@H](Cc4ccc(O)cc4)NC(=O)[C@H](CC(N)=O)NC(=O)[C@H](Cc4ccccc4)NC(=O)[C@H](CO)NC(=O)[C@@H](N)CC(N)=O)C(=O)N2)NC(=O)[C@H](CSSC[C@@H](C(=O)N[C@@H](Cc2ccc(O)cc2)C(=O)O)NC(=O)CNC(=O)[C@H]([C@@H](C)O)NC3=O)NC1=O [Mutant S03F] (HELM PEPTIDE1{N.S.F.N.Y.C.C.E.L.C.C.N.P.A.C.T.G.C.Y}$PEPTIDE1,PEPTIDE1,6:R3-11:R3|PEPTIDE1,PEPTIDE1,7:R3-15:R3|PEPTIDE1,PEPTIDE1,10:R3-18:R3$$$V2.0)  1.5714
7. CC(C)C[C@@H]1NC(=O)[C@H](CCC(=O)O)NC(=O)[C@@H]2CSSC[C@@H]3NC(=O)[C@H](C)NC(=O)[C@@H]4CCCN4C(=O)[C@H](CC(N)=O)NC(=O)[C@H](CSSC[C@H](NC(=O)[C@H](Cc4ccc(O)cc4)NC(=O)[C@H](CC(C)C)NC(=O)[C@H](CO)NC(=O)[C@H](CO)NC(=O)[C@@H](N)CC(N)=O)C(=O)N2)NC(=O)[C@H](CSSC[C@@H](C(=O)N[C@@H](Cc2ccc(O)cc2)C(=O)O)NC(=O)CNC(=O)[C@H]([C@@H](C)O)NC3=O)NC1=O [Mutant N04L] (HELM PEPTIDE1{N.S.S.L.Y.C.C.E.L.C.C.N.P.A.C.T.G.C.Y}$PEPTIDE1,PEPTIDE1,6:R3-11:R3|PEPTIDE1,PEPTIDE1,7:R3-15:R3|PEPTIDE1,PEPTIDE1,10:R3-18:R3$$$V2.0)  1.6125
